{"source": "PubChem BioAssay AID2546", "about": "(National Center for Advancing Translational Sciences (NCATS), 2010)", "note": "Out of some 310,000 compounds screened, about 11,000 (3.5%) were called active. This list was built around the results that the source calls inconclusive (neither active nor inactive); the mix of calls is not that of the screen. Calls come from the whole dose curve; as a rule, active = well fitted inhibition curve with a large enough effect; inconclusive = small, poorly fitted or top-dose-only effect, or effect the other way; inactive = flat fitted curve, though single readings scatter. No potency is given beside an inconclusive call; the fits are too rough. More than one record can exist for a structure, and the calls need not agree. % is set by controls: 0 for no effect and ±100 for the full control effect; potency is the fitted concentration of half-maximal effect; tags give direction and shape of the fitted curve.", "data": [{"experiment": "VP16 counterscreen qHTS for inhibitors of ROR gamma transcriptional activity;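 note: Gal4-VP16 expression switched on by copper sulfate through the metallothionein promoter; nearly all actives have a fitted effect of over 50% in size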", "conditions": "Drosophila S2 Gal4-VP16 UAS-luciferase, luminescence, 20 h; series mostly up to 53.6 µM", "values": [{"smiles": "COc1ccc(N2C(=O)/C(=C/c3cccs3)C(=O)NC2=S)cc1", "Potency": "inactive"}, {"smiles": "Cc1ccc2oc(-c3ccccc3)cc(=O)c2c1", "Potency": "inconclusive [inhibitor, partial curve]"}, {"smiles": "O=C(Nc1cccc(Cl)c1)OC1CN2CCC1CC2", "note": "(centres undefined)", "Potency": "inconclusive [inhibitor, single point]"}, {"smiles": "COCCCNC(=S)NCCCNc1nc2cc(C)cc(C)c2cc1C#N", "Potency": "inconclusive [inhibitor, single point]"}, {"smiles": "C=C1C(=O)O[C@@H]2C[C@@H](C)[C@@H]3C4OC4C(=O)[C@@]3(C)[C@@H](O)[C@H]12", "note": "(some centres undefined)", "Potency": "active: 3.98 µM"}, {"smiles": "CC(=O)OC(C)(C)/C=C/C(=O)[C@](C)(O)[C@H]1[C@H](O)C[C@@]2(C)[C@@H]3CC=C4[C@H](C[C@H](O)C(=O)C4(C)C)[C@]3(C)C(=O)C[C@]12C", "Potency": "inconclusive [inhibitor, single point]"}, {"smiles": "COc1ccc(CN2C(=O)NC(=O)/C(=C/c3ccc(OC)c(OC)c3OC)C2=O)cc1", "Potency": "active: 1.26 µM"}, {"smiles": "O=C1CN=C(c2ccc(Br)cc2)c2oc3ccccc3c2N1", "Potency": "inconclusive [inhibitor, full curve, poor fit]"}, {"smiles": "Cc1ccc(S(=O)(=O)N(CC(=O)N/N=C\\c2cccs2)c2cccc3cccnc23)cc1", "Potency": "inconclusive [activator, single point]"}, {"smiles": "CC(=O)NC1CC2CCC(C1)N2", "note": "(centres undefined)", "Potency": "inconclusive [inhibitor, full curve]"}, {"smiles": "CCC(C)n1c(O)c(C=NCCc2ccccc2)c(=O)[nH]c1=S", "note": "(centres undefined)", "Potency": "inconclusive [inhibitor, single point]"}, {"smiles": "CCN(C(=O)CSc1ncccc1C(=O)Oc1cccc([N+](=O)[O-])c1)c1cccc(C)c1", "Potency": "inconclusive [inhibitor, single point]"}, {"smiles": "CCn1ccnc1CN1CCCC(C(=O)c2ccc(OC)cc2OC)C1", "note": "(centres undefined)", "Potency": "active: 6.31 µM"}, {"smiles": "CCC/C=C(\\CCC)C(NP(=O)(c1ccccc1)c1ccccc1)c1ccccc1", "note": "(centres undefined)", "Potency": "inconclusive [inhibitor, single point]"}, {"smiles": "CC(C)CNC(=O)c1c(N)n(Cc2ccc3c(c2)OCO3)c2nc3ccccc3nc12", "Potency": "active: 7.08 µM"}, {"smiles": "Cc1cc(OC(=O)c2ccco2)c2c3c(c(=O)oc2c1)CCCC3", "Potency": "inconclusive [inhibitor, single point]"}, {"smiles": "CCCCCCCCCCCCN=C(N)N", "Potency": "inconclusive [inhibitor, single point]"}, {"smiles": "O=C(O)c1ccccc1-c1c2cc(Br)c(=O)cc-2oc2[c]([Hg])c(O)c(Br)cc12", "Potency": "active: 17.8 µM"}, {"smiles": "CC(C)CN1CCC2(CC1)CCN(C(=O)Oc1ccccc1)CC2", "Potency": "inactive"}, {"smiles": "S=C(S)N1CCCC1", "Potency": "active: 0.316 µM"}, {"smiles": "Cn1cc(C(=O)N2CCCCC2)c2ccccc21", "Potency": "inactive"}, {"smiles": "C[C@H]1C[C@@H](C)C(=O)[C@@H]([C@H](O)CC2CC(=O)NC(=O)C2)C1", "Potency": "active: 2.82 µM"}, {"smiles": "O=C1C(I)=CC(=C(c2cc(I)c(O)c(I)c2)c2ccccc2C(=O)O)C=C1I", "Potency": "inactive"}, {"smiles": "CCC(=NCc1cc(OC)cc(OC)c1)c1c(O)n(C2CCCCC2)c(=O)[nH]c1=O", "Potency": "inconclusive [inhibitor, single point]"}, {"smiles": "Cc1ccc(C(C)(C)NC(=O)C2CCC(=O)N(C3CCCCCC3)C2)cc1", "note": "(centres undefined)", "Potency": "inconclusive [activator, single point]"}, {"smiles": "Cc1ccc2nc3c(cc2c1)CC1(C(=O)N(C)C(=O)N(C)C1=O)C1CCCCN31", "note": "(centres undefined)", "Potency": "inconclusive [inhibitor, single point]"}, {"smiles": "CC(C)c1c(CN(C)[C@@H](C)Cc2ccccc2)n(C)n(-c2ccccc2)c1=O", "Potency": "inactive"}, {"smiles": "Oc1cc[c]([Hg][Cl])cc1", "Potency": "active: 2.82 µM"}, {"smiles": "COc1ccc(OC)c(N2C(=O)NC(=O)/C(=C/c3ccc([N+](=O)[O-])s3)C2=O)c1", "activity, negative = inhibition": "inactive: -3.49% [at 10 µM]"}, {"smiles": "c1ccc2c(c1)Sc1ccccc1N2CC1CN2CCC1CC2", "note": "(centres undefined)", "Potency": "inconclusive [inhibitor, partial curve]"}, {"smiles": "CCCC1COC(Cn2cncn2)(c2ccc(Cl)cc2Cl)O1", "note": "(centres undefined)", "Potency": "active: 17.8 µM"}, {"smiles": "Cc1nn(C(C)(C)C)c(C)c1/C=N/OC(=O)Nc1ccc(Cl)c(Cl)c1", "Potency": "active: 1 µM"}, {"smiles": "CC(C)Sc1nnc([C@@H](N)Cc2ccccc2)o1", "Potency": "active: 11.2 µM"}, {"smiles": "CN1CCC(N(C)c2nc(-c3ccc([N+](=O)[O-])cc3)nc3ccccc23)CC1", "Potency": "inconclusive [inhibitor, single point]"}, {"smiles": "Oc1ccc(Cl)cc1Sc1cc(Cl)ccc1O", "Potency": "inconclusive [inhibitor, single point]"}, {"smiles": "ClCC1CO1", "note": "(centres undefined)", "Potency": "inactive"}, {"smiles": "Cc1cc(C(=O)CS(=O)c2ccc(F)cc2)cc(C)c1OC(=O)N(C)C", "note": "(centres undefined)", "Potency": "inconclusive [activator, single point]"}, {"smiles": "CCOC(=O)c1ccc(N=Cc2c(O)n(-c3ccc(OC)cc3)c(=S)[nH]c2=O)cc1", "Potency": "inconclusive [inhibitor, single point]"}, {"smiles": "CCCCCc1cc(O)c2c3c(c(=O)oc2c1)CN(C)CC3", "Potency": "inactive"}, {"smiles": "CN1c2ccc([N+](=O)[O-])cc2CC2(C(=O)NC(=O)N(c3ccc(Br)cc3)C2=O)C1c1ccccc1", "note": "(centres undefined)", "Potency": "inactive"}, {"smiles": "Cc1cc(C(=O)CS(=O)(=O)c2ccc(F)cc2)cc(C)c1OC(=O)N(C)C", "Potency": "inconclusive [inhibitor, full curve]"}, {"smiles": "COc1ccccc1OCCCn1cc(C=O)c2ccccc21", "Potency": "active: 0.002 µM"}, {"smiles": "CCC(C)C(=O)c1c(O)c(C)c2oc3c(C)c(O)c(C(=O)C(C)CC)c(O)c3c2c1O", "note": "(centres undefined)", "Potency": "inconclusive [inhibitor, single point]"}, {"smiles": "CC1OC(=O)C(C(C)C)NC(=O)C(C(C)C)OC(=O)C(C(C)C)NC(=O)C(C)OC(=O)C(C(C)C)NC(=O)C(C(C)C)OC(=O)C(C(C)C)NC(=O)C(C)OC(=O)C(C(C)C)NC(=O)C(C(C)C)OC(=O)C(C(C)C)NC1=O", "note": "(centres undefined)", "Potency": "active: 0.562 µM"}, {"smiles": "C=C1CC2C(CC[C@]3(C)C(=O)CCC23)[C@]2(C)C=CC(=O)C=C12", "note": "(some centres undefined)", "Potency": "inactive"}, {"smiles": "COc1ccc(NC2CC(=O)N(C(C)C)C2=O)cc1", "note": "(centres undefined)", "Potency": "inconclusive [activator, full curve]"}, {"smiles": "O=C(CCCCCn1c(=S)[nH]c2ccccc2c1=O)N1CCC2(CC1)OCCO2", "Potency": "inconclusive [inhibitor, single point]"}, {"smiles": "CCCCn1c(O)c(C(CC)=NCc2ccc3c(c2)OCO3)c(=O)[nH]c1=O", "Potency": "inconclusive [inhibitor, single point]"}, {"smiles": "OC[C@H]1O[C@@H](n2cnc3cc(Cl)c(Cl)cc32)[C@H](O)[C@H]1O", "Potency": "active: 7.94 µM"}, {"smiles": "COC(=O)C[C@](O)(CCCC(C)(C)O)C(=O)O[C@@H]1C(OC)=C[C@]23CCCN2CCc2cc4c(cc2[C@H]13)OCO4", "Potency": "inconclusive [inhibitor, full curve, poor fit]"}, {"smiles": "CC(C)(C)OOC(C)(C)C", "Potency": "inactive"}, {"smiles": "C/C(=N\\N1CCCCC1c1cccnc1)c1c(O)n(C2CCCCC2)c(=S)[nH]c1=O", "note": "(centres undefined)", "Potency": "active: 3.98 µM"}, {"smiles": "CC(C)CCn1c(=O)c(C(=O)Nc2ccccc2S(N)(=O)=O)c(O)c2ccccc21", "Potency": "inconclusive [inhibitor, single point]"}, {"smiles": "OC(c1cccc(Cl)c1)(c1cccc(Cl)c1)C1CN2CCC1CC2", "note": "(centres undefined)", "Potency": "active: 11.2 µM"}, {"smiles": "COc1cc(/C=C(/C)[N+](=O)[O-])ccc1OCc1ccccc1Cl", "Potency": "inconclusive [inhibitor, single point]"}, {"smiles": "O=C1C=CC(=O)c2c(O)cccc21", "Potency": "inactive"}, {"smiles": "CN(C(=O)Cc1ccc(Cl)c(Cl)c1)[C@H](CN1CCCC1)c1ccccc1", "Potency": "inactive"}, {"smiles": "COc1cc2c(cc1OC)-c1c(OC)c(OC)c(C=O)c3c1[C@H](C2)N(C)CC3", "Potency": "inactive"}, {"smiles": "Clc1ccc2c(c1)C(OC1CN3CCC1CC3)c1ccccc1CS2", "note": "(centres undefined)", "Potency": "inconclusive [inhibitor, single point]"}, {"smiles": "C=Cn1ccnc1P(=S)(c1ccc(N(C)C)cc1)c1nccn1C=C", "Potency": "inconclusive [inhibitor, single point]"}, {"smiles": "CCCNc1nc2c(c(=O)[nH]c(=O)n2C)n1Cc1ccc(F)cc1", "Potency": "inconclusive [activator, full curve, poor fit]"}, {"smiles": "CCCCCC1C(=O)O[C@H](C)[C@@H](NC(=O)c2cccc(NC=O)c2O)C(=O)OC(C)C1OC(=O)CC(C)C", "note": "(some centres undefined)", "Potency": "active: 11.2 µM"}, {"smiles": "C/C(=C\\c1csc(C)n1)[C@@H]1C[C@@H]2O[C@]2(C)CCC[C@H](C)[C@H](O)[C@@H](C)C(=O)C(C)(C)[C@@H](O)CC(=O)O1", "Potency": "inconclusive [activator, single point]"}, {"smiles": "CCOC(=O)CSCCOc1ccc(C=C2C(=O)NC(=O)NC2=O)cc1OC", "Potency": "inconclusive [inhibitor, single point]"}, {"smiles": "S=C1Nc2ccccc2Sc2ccccc21", "Potency": "active: 5.01 µM"}, {"smiles": "C/C1=C\\[C@@H](C)C/C=C/[C@H]2[C@@H]3O[C@]3(C)[C@@H](C)[C@H]3[C@H](Cc4c[nH]c5ccccc45)NC(=O)[C@]32C(=O)/C=C/C(=O)[C@@H]1O", "Potency": "active: 11.2 µM"}, {"smiles": "O=c1[nH]c(=S)n(Cc2ccc(F)cc2)c(O)c1/C=N/N1CCCCC1", "Potency": "inconclusive [inhibitor, single point]"}, {"smiles": "COc1ccc(-n2nc(C(=O)NCC(=O)N3CCC4(CC3)OCCO4)c3ccccc3c2=O)cc1OC", "Potency": "inconclusive [inhibitor, single point]"}, {"smiles": "CC(C)c1ccc(N2C(=O)NC(=O)/C(=C\\C=C\\c3ccco3)C2=O)cc1", "Potency": "active: 4.47 µM"}]}]}
